{"source": "the supplement of paper PMC8728848", "binders": {"B1": {"name": "SBD-G4S3-Fc (protein)", "chain": "MASIPSSASVQLDSYNYDGSTFSGKIYVKNIAYSKKVTVVYADGSDNWNNNGNIIAASFSGPISGSNYEYWTFSASVKGIKEFYIKYEVSGKTYYDNNNSANYQVSTGGGGSGGGGSGGGGSEFVPRDCGCKPCICTVPEVSSVFIFPPKPKDVLTITLTPKVTCVVVDISKDDPEVQFSWFVDDVEVHTAQTQPREEQFNSTFRSVSELPIMHQDWLNGKEFKCRVNSAAFPAPIEKTISKTKGRPKAPQVYTIPPPKEQMAKDKVSLTCMITDFFPEDITVEWQWNGQPAENYKNTQPIMDTDGSYFVYSKLNVQKSNWEAGNTFTCSVLHEGLHNHHTEKSLSHSPGAA"}}, "assay_in_all_cases": "glycan array binding signal (z-score within array); higher = stronger binding", "settings_in_all_cases": "glycan notation: IUPAC condensed, linker removed", "key": {"Gal3S(b1-4)Glc": {"target": "Gal3S(b1-4)Glc", "summary_of_the_method": "(§1)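 Negative Z-scores can be read as non-binding. The Z-score is calculated within each array and then averaged across arrays of one protein sequence at different concentrations or buffers and across linkers. Arrays, 3228 in all, were curated from the Consortium for Functional Glycomics database and kept only where the protein sequence was available.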"}, "Gal3S(b1-4)Glc6S": {"target": "Gal3S(b1-4)Glc6S", "summary_of_the_method": "as §1"}, "Gal3S(b1-4)GlcNAc": {"target": "Gal3S(b1-4)GlcNAc", "summary_of_the_method": "as §1"}, "[1]": {"target": "Gal3S(b1-4)[Fuc(a1-3)]Glc6S", "summary_of_the_method": "as §1"}, "[2]": {"target": "Gal3S(b1-4)[Fuc(a1-3)]GlcNAc", "summary_of_the_method": "as §1"}, "[3]": {"target": "Gal3S(b1-4)[Fuc(a1-3)]GlcNAc6S", "summary_of_the_method": "as §1"}, "Gal3S4S(b1-4)GlcNAc": {"target": "Gal3S4S(b1-4)GlcNAc", "summary_of_the_method": "as §1"}, "Gal3S6S(b1-4)GlcNAc": {"target": "Gal3S6S(b1-4)GlcNAc", "summary_of_the_method": "as §1"}, "Gal3S6S(b1-4)GlcNAc6S": {"target": "Gal3S6S(b1-4)GlcNAc6S", "summary_of_the_method": "as §1"}, "Gal4S(b1-4)GlcNAc": {"target": "Gal4S(b1-4)GlcNAc", "summary_of_the_method": "as §1"}, "Gal4S6S(b1-4)GlcNAc": {"target": "Gal4S6S(b1-4)GlcNAc", "summary_of_the_method": "as §1"}, "Gal6P(b1-4)GlcNAc": {"target": "Gal6P(b1-4)GlcNAc", "summary_of_the_method": "as §1"}, "Gal6S(b1-3)GlcNAc": {"target": "Gal6S(b1-3)GlcNAc", "summary_of_the_method": "as §1"}, "Gal6S(b1-3)GlcNAc6S": {"target": "Gal6S(b1-3)GlcNAc6S", "summary_of_the_method": "as §1"}, "Gal6S(b1-4)Glc": {"target": "Gal6S(b1-4)Glc", "summary_of_the_method": "as §1"}, "Gal6S(b1-4)Glc6S": {"target": "Gal6S(b1-4)Glc6S", "summary_of_the_method": "as §1"}, "Gal6S(b1-4)GlcNAc": {"target": "Gal6S(b1-4)GlcNAc", "summary_of_the_method": "as §1"}, "Gal6S(b1-4)GlcNAc6S": {"target": "Gal6S(b1-4)GlcNAc6S", "summary_of_the_method": "as §1"}, "GalNAc(a1-3)Gal": {"target": "GalNAc(a1-3)Gal", "summary_of_the_method": "as §1"}, "GalNAc(a1-3)GalNAc": {"target": "GalNAc(a1-3)GalNAc", "summary_of_the_method": "as §1"}, "[4]": {"target": "GalNAc(a1-3)GalNAc(b1-3)Gal(a1-4)Gal(b1-4)Glc", "summary_of_the_method": "as §1"}, "[5]": {"target": "GalNAc(a1-3)GalNAc(b1-3)Gal(a1-4)Gal(b1-4)GlcNAc", "summary_of_the_method": "as §1"}, "GalNAc(b1-3)Gal": {"target": "GalNAc(b1-3)Gal", "summary_of_the_method": "as §1"}, "[6]": {"target": "GalNAc(b1-3)Gal(a1-4)Gal(b1-4)GlcNAc", "summary_of_the_method": "as §1"}, "[7]": {"target": "GalNAc(b1-3)Gal(a1-4)Gal(b1-4)GlcNAc(b1-3)Gal(b1-4)Glc", "summary_of_the_method": "as §1"}, "[8]": {"target": "GalNAc(b1-3)Gal(a1-6)Gal(b1-4)Glc", "summary_of_the_method": "as §1"}, "GalNAc(b1-3)GalNAc": {"target": "GalNAc(b1-3)GalNAc", "summary_of_the_method": "as §1"}, "GalNAc(b1-3)GlcNAc": {"target": "GalNAc(b1-3)GlcNAc", "summary_of_the_method": "as §1"}, "GalNAc(b1-4)Gal(b1-4)Glc": {"target": "GalNAc(b1-4)Gal(b1-4)Glc", "summary_of_the_method": "as §1"}, "GalNAc(b1-4)GlcNAc": {"target": "GalNAc(b1-4)GlcNAc", "summary_of_the_method": "as §1"}, "[9]": {"target": "GalNAc(b1-4)GlcNAc(b1-2)Man", "summary_of_the_method": "as §1"}, "[10]": {"target": "GalNAc(b1-4)GlcNAc(b1-2)Man(a1-3)[GalNAc(b1-4)GlcNAc(b1-2)Man(a1-6)]Man(b1-4)GlcNAc(b1-4)GlcNAc", "summary_of_the_method": "as §1"}, "[11]": {"target": "GalNAc(b1-4)GlcNAc(b1-3)GalNAc(b1-4)GlcNAc", "summary_of_the_method": "as §1"}, "GalNAc(b1-4)GlcNAc6S": {"target": "GalNAc(b1-4)GlcNAc6S", "summary_of_the_method": "as §1"}, "GalNAc(b1-6)GalNAc": {"target": "GalNAc(b1-6)GalNAc", "summary_of_the_method": "as §1"}, "GalNAc3S(b1-4)GlcNAc": {"target": "GalNAc3S(b1-4)GlcNAc", "summary_of_the_method": "as §1"}, "GalNAc3S(b1-4)GlcNAc3S": {"target": "GalNAc3S(b1-4)GlcNAc3S", "summary_of_the_method": "as §1"}}, "note": "The other results are listed elsewhere or left out.", "data": [{"binder": "B1", "values": [{"measurement": "glycan array binding signal (z-score)", "setting": "Gal3S(b1-4)Glc", "value": -0.216}, {"measurement": "glycan array binding signal (z-score)", "setting": "Gal3S(b1-4)Glc6S", "value": -0.222}, {"measurement": "glycan array binding signal (z-score)", "setting": "Gal3S(b1-4)GlcNAc", "value": -0.058}, {"measurement": "glycan array binding signal (z-score)", "setting": "[1]", "value": 0.319}, {"measurement": "glycan array binding signal (z-score)", "setting": "[2]", "value": 0.215}, {"measurement": "glycan array binding signal (z-score)", "setting": "[3]", "value": 0.226}, {"measurement": "glycan array binding signal (z-score)", "setting": "Gal3S4S(b1-4)GlcNAc", "value": -0.1}, {"measurement": "glycan array binding signal (z-score)", "setting": "Gal3S6S(b1-4)GlcNAc", "value": 0.373}, {"measurement": "glycan array binding signal (z-score)", "setting": "Gal3S6S(b1-4)GlcNAc6S", "value": -0.03}, {"measurement": "glycan array binding signal (z-score)", "setting": "Gal4S(b1-4)GlcNAc", "value": -0.493}, {"measurement": "glycan array binding signal (z-score)", "setting": "Gal4S6S(b1-4)GlcNAc", "value": -0.029}, {"measurement": "glycan array binding signal (z-score)", "setting": "Gal6P(b1-4)GlcNAc", "value": -0.45}, {"measurement": "glycan array binding signal (z-score)", "setting": "Gal6S(b1-3)GlcNAc", "value": 0.372}, {"measurement": "glycan array binding signal (z-score)", "setting": "Gal6S(b1-3)GlcNAc6S", "value": 0.013}, {"measurement": "glycan array binding signal (z-score)", "setting": "Gal6S(b1-4)Glc", "value": 0.105}, {"measurement": "glycan array binding signal (z-score)", "setting": "Gal6S(b1-4)Glc6S", "value": 0.402}, {"measurement": "glycan array binding signal (z-score)", "setting": "Gal6S(b1-4)GlcNAc", "value": 0.28}, {"measurement": "glycan array binding signal (z-score)", "setting": "Gal6S(b1-4)GlcNAc6S", "value": 0.036}, {"measurement": "glycan array binding signal (z-score)", "setting": "GalNAc(a1-3)Gal", "value": 0.167}, {"measurement": "glycan array binding signal (z-score)", "setting": "GalNAc(a1-3)GalNAc", "value": -0.317}, {"measurement": "glycan array binding signal (z-score)", "setting": "[4]", "value": -0.015}, {"measurement": "glycan array binding signal (z-score)", "setting": "[5]", "value": -0.169}, {"measurement": "glycan array binding signal (z-score)", "setting": "GalNAc(b1-3)Gal", "value": -0.376}, {"measurement": "glycan array binding signal (z-score)", "setting": "[6]", "value": -0.353}, {"measurement": "glycan array binding signal (z-score)", "setting": "[7]", "value": 0.453}, {"measurement": "glycan array binding signal (z-score)", "setting": "[8]", "value": -0.468}, {"measurement": "glycan array binding signal (z-score)", "setting": "GalNAc(b1-3)GalNAc", "value": -0.442}, {"measurement": "glycan array binding signal (z-score)", "setting": "GalNAc(b1-3)GlcNAc", "value": 0.108}, {"measurement": "glycan array binding signal (z-score)", "setting": "GalNAc(b1-4)Gal(b1-4)Glc", "value": -0.21}, {"measurement": "glycan array binding signal (z-score)", "setting": "GalNAc(b1-4)GlcNAc", "value": -0.142}, {"measurement": "glycan array binding signal (z-score)", "setting": "[9]", "value": -0.357}, {"measurement": "glycan array binding signal (z-score)", "setting": "[10]", "value": -0.087}, {"measurement": "glycan array binding signal (z-score)", "setting": "[11]", "value": 0.066}, {"measurement": "glycan array binding signal (z-score)", "setting": "GalNAc(b1-4)GlcNAc6S", "value": -0.208}, {"measurement": "glycan array binding signal (z-score)", "setting": "GalNAc(b1-6)GalNAc", "value": -0.297}, {"measurement": "glycan array binding signal (z-score)", "setting": "GalNAc3S(b1-4)GlcNAc", "value": -0.353}, {"measurement": "glycan array binding signal (z-score)", "setting": "GalNAc3S(b1-4)GlcNAc3S", "value": -0.363}]}]}
